Reference: the supplement of paper PMC11417369
± gives the standard deviation of the averaged measurements. This is one part of the list.

System: PfAP2-EXP AP2 domain (GST-tagged)
Experiment: gcPBM binding intensity (ln(normalized median fluorescence intensity)); higher = stronger DNA binding
Outline: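 An Agilent 4 × 180k array of primer-extended double-stranded 36-bp intergenic genomic probes, with negative controls, was incubated for 1 h with GST-tagged P. falciparum DNA-binding domains expressed in E. coli. Alexa488 anti-GST antibody detected bound protein, scanned at 488 nm. Binding intensity is the highest Masliner-normalised natural-log median intensity across replicate spots of either probe orientation.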

Sequence	gcPBM binding intensity (ln)
ATTATGCTACAAGGAGAACACACAATTGCCACTTTT [CACACA_site8673]	8.63 ± 0.54
ACATATATATATATATATATATATATATAATATTTA [CACACA_negctrl_site633]	8.73 ± 0.028
TTTTTTTTGTGGTGTCGTACATATGTTTGTTTTAAG [XGTACX_site1759]	8.91 ± 0.57
CCACGAGAATATATAGTGCATAATAATTTTTTTTTG	8.56 ± 0.33
GGTGATAATAAGCATACACACACACCCAAAAAAAAA [CACACA_site8137]	8.61 ± 0.42
AAAAAAAAAAAGAAAGCACACAATACATATGTATAA [CACACA_site1137]	8.45 ± 0.47
TAAATTTTTAAATACACACATACACCCATACAGACA [CACACA_site548]	9.04 ± 0.45
ATATATATCAGACACACACACATGTTTTAAAACTAT [CACACA_site77]	9.04 ± 0.56
CATATAAAAATATATGCACACAAATAAAAAATTATA [CACACA_site9210]	8.39 ± 0.28
ATATTTAAATAATATTCACACACAAAATTATATTTT [CACACA_site7955]	8.42 ± 0.4
ATTTCTCAATCGTAATGTACAAAAAAAAGGGAAAAG [XGTACX_site2781]	8.75 ± 0.55
ACAAACAAAGAAAGAACACACATACACAATATACCT [CACACA_site5566]	8.75 ± 0.59
ATAAATATAATAATCATACACACCAAAGAGAATATT [CACACA_site1888]	8.66 ± 0.52
AAAGTTATTATGCAATAATTATGATAATTAATATAT [TGCATGCA_negctrl_site316]	8.64 ± 0.56
ATGACTTACATATATAGTACTTTGTTTTGGAGTTGC [XGTACX_site94]	8.64 ± 0.42
TATGAGGAAACGTGGTGTACTTTTTTTTAATAAAAA [XGTACX_site1351]	8.37 ± 0.26
AAAAAAAAAAAGTTTACACACATTAATTTTACATAT [CACACA_site834]	8.12 ± 0.43
AAAAAAATACCATTCACACATATTCTTTTATTATTT [CACACA_site5113]	8.48 ± 0.28
GTAGCAATAAACATATGTACATATATATATTTTTTC [XGTACX_site5814]	8.66 ± 0.4
TAATAATACCCTTGCTGTACCAAATAAAGTTGAATA [XGTACX_site6922]	8.36 ± 0.35
AAATCAACGATCTATACATGCATATAATATATACAT [TGCATGCA_site25]	8.67 ± 0.21
ATTAAAAAGACAAAAAAAAAATTTTTTTTTTTTTTT [CACACA_negctrl_site1027]	8.32 ± 0.26

Sequence	gcPBM binding intensity (ln)
TTTCATAACAAAAAAGTGCAAAATAGCACGAACATT [GTGCAC_site9703]	9.07 ± 0.29
AAAAATTATATACATCATAGAATTAACATTTTAAAT [GTGCAC_negctrl_site369]	8.11 ± 0.33
AGAAAAAGGAGAAAAAGTACAAAACGGAGTAGTATT [XGTACX_site3858]	9.06 ± 0.54
ATGGCCACTGTGAAATGTACAAAAAAAAAATACAAT [XGTACX_site2874]	8.86 ± 0.6
TATGTATATATATATATATATATATATATATATATA [TGCATGCA_negctrl_site491]	10.1 ± 0.66
AGTAGTCTGGAGAAAAGTACATAGTATCTGGTAACC [XGTACX_site2024]	8.62 ± 0.45
TTTTACAATAATAAGTAGATCTAAATAAAGATTTAA [GTGCAC_negctrl_site547]	8.33 ± 0.59
CATACAAATTAATATGTACACACAAATATATATATA [CACACA_site8605]	9.73 ± 0.15
AAAAAAAAAAAATAATGTACATATGTATTTGAGAAA [XGTACX_site3572]	8.41 ± 0.45
TTTTTTTTTTTTTTTTGTACATATTTTAATTTGTTT [XGTACX_site6297]	8.05 ± 0.4
TTCCAAAATTGCACATGTACAAAATTCTCCAATATG [XGTACX_site3419]	8.71 ± 0.33
TTTATATTATTTAATGAGAAATAATTATAAACAATT [TGCATGCA_negctrl_site65]	8.15 ± 0.51
GATATTCATAGAAACACACATACAAATTATGTATAT [CACACA_site144]	8.46 ± 0.43
GTTAAATAATATATATGTACATACATAAGTGTTACT [XGTACX_site4778]	8.64 ± 0.34
ATTTCCTTTTGTTTCAGTACATAATTTTTTTTTTTT [XGTACX_site4842]	8.88 ± 0.57
TTGCCCATTTAATTAACACACAAATATTTATATTCT [CACACA_site738]	8.72 ± 0.26
TTTTTAAAGTTTTATACACACACCAAAATTATTCTA [CACACA_site600]	8.32 ± 0.37
TAATTGTACGCCAATACACACAGAATTAAAATGTAG [CACACA_site4234]	8.72 ± 0.42
TATGTGCACCCATGTACATGCGGACATATGTTATAT [TGCATGCA_site383]	9.35 ± 0.23
TATGTATTTAAATTAACACACATATGTGGTTAATAG [CACACA_site5697]	8.37 ± 0.37
AAAAATTTGGCATACACACACACACCCACACCCACA [CACACA_site587]	8.77 ± 0.49
ATATATTATATATATTGTACATGTAAAATTTTAAAA [XGTACX_site7197]	8.67 ± 0.41

Sequence	gcPBM binding intensity (ln)
ACATATATATATATATATATATATATATCATTATGT [CACACA_negctrl_site724]	8.79 ± 0.16
ACTCTTGATCTGAATGCACACAATAAATTATATAAA [CACACA_site1438]	8.79 ± 0.23
AGTATAATAATATTTACACACGCATATGTTATATAT [CACACA_site1476]	8.61 ± 0.51
ATTTAAAAAAAAAAAACACACATGTGAATAGAAAAG [CACACA_site3323]	8.93 ± 0.38
AAAACGCTACATAATTGTACATGTAGAAATAAAAGC [XGTACX_site2895]	9.2 ± 0.4
TCTAAAAATAAGAACACACACATATAAGCATATAAA [CACACA_site2274]	8.65 ± 0.37
TACTGCCTTCCATACCCACACACTTCCCATATATTT [CACACA_site2705]	9.11 ± 0.52
AATGTAAAATATAAATGTACATATATATATATATAT [XGTACX_site5071]	10.2 ± 0.24
AAACAAAATATGGTTCATGAGCAAAAGTTTATTTTG [XGTACX_negctrl_site531]	8.69 ± 0.47
ATTTATTTATACAAAGTGCAATATTTTGTTAAAGTC [GTGCAC_site9618]	8.62 ± 0.014
CTCTTTTCTTATAATACACACAGTAATATATATATA [CACACA_site1520]	9.54 ± 0.2
ATATGAAATATATAAATATGTTTATATATATATATA [GTGCAC_negctrl_site94]	10.1 ± 0.33
TATAAAATACATTTATAATATATATATATATTTTTT [TGCATGCA_negctrl_site435]	8.03 ± 0.42
TCATTAAAGGAAAAATGTACGTATAAATAAATATAT [XGTACX_site2587]	8.8 ± 0.42
TTCAAAAAATAAAATAATAATATATATATAAATATA [XGTACX_negctrl_site84]	8.12 ± 0.36
TTTACATCAACCTTTTCACACATTCATATACAGATA [CACACA_site6152]	8.74 ± 0.49
TGTGTTTATACGTTTTGTACATATTTTTATTTTGTA [XGTACX_site6425]	8.85 ± 0.24
TTTTTTATATTTAAACTTCACATGGTTTTCATTTAT [XGTACX_negctrl_site291]	8.68 ± 0.32
ATACATATATATATATGTACACATAAACATGAGTGA [XGTACX_site3200]	8.72 ± 0.3
TAATGGAAACCATTTATTTTCTGCAATATATTTTTT [CACACA_negctrl_site1653]	8.08 ± 0.3
ATACATAAAATTAAAACACACATTTTATTAAATACG [CACACA_site2167]	8.33 ± 0.13
GTGTGATGGTACAATATACACACTTAAAAAAAAAAA [CACACA_site8769]	8.53 ± 0.48

Sequence	gcPBM binding intensity (ln)
AGTTATATGGTTAATACACACAACAAATGTTTCTTC [CACACA_site6642]	8.57 ± 0.38
AAAAAATATATTTGCACACTCAAAAAAAAAAAAAAA [CACACA_site859]	8.2 ± 0.53
AATATAACTTAGAATTGTACATAAAAAAAAATATAT [XGTACX_site3313]	8.68 ± 0.35
TACCTAATATGTTATACACACATTATAAGTACATAT [CACACA_site7206]	8.58 ± 0.27
TAAGAAATAAATAGTACACACATAGACACACGCACA [CACACA_site6821]	9.03 ± 0.4
AAAAAAAAAAAAAAAAGTACATATATATATAATTAT [XGTACX_site7836]	8.54 ± 0.43
AAATGATGCATTTGTCATTAAAATTGTGAAATATTA [CACACA_negctrl_site231]	8.41 ± 0.49
ATAATATCTTCTTTTTTTTTTTTTTTTTTTTTTTTT [CACACA_negctrl_site1005]	9.065 ± 0.049
ATATATATATAATGTGTACACACATATGTATTTATA [CACACA_site8170]	9.78 ± 0.15
TAATTAAGATGATAAAAATTGAAAAAACAATTTTAA [CACACA_negctrl_site658]	8.02 ± 0.49
TATAATAAAATATGTACACACATACAGACATATATA [CACACA_site6693]	8.64 ± 0.35
CATATAGTATAAATTTGTACATAAATATATATATAT [XGTACX_site7477]	9.67 ± 0.23
AGAGTATATAAAGTAACACACAATAAAATAAAATAA [CACACA_site2328]	8.85 ± 0.28
AAGAAATATATATATATATATATATATATATATGTA [TGCATGCA_negctrl_site442]	8.925 ± 0.078
TAATTTTATATTAAAAGTACATAATAAAAACTATAA [XGTACX_site8779]	8.37 ± 0.3
TACATACACGGACACACACACATATATATATATATA [CACACA_site5883]	10.2 ± 0.36
TGATGATATAAAAACACACACATATAATATAATACT [CACACA_site1208]	8.7 ± 0.44
CACTAATATATATACAGTACATAATAAAGTATATAA [XGTACX_site6875]	8.39 ± 0.33
TTTAAAAACAAATATTGTACAAATTAAAATATATCA [XGTACX_site7220]	8.6 ± 0.33
AGAGCATAATAAAACACACACATACATACAGATATA [CACACA_site4671]	8.69 ± 0.49
TATTACCCATATTATACACACATATATTATATATAT [CACACA_site1567]	8.7 ± 0.26
